Test results reported in publication PMC4336329 (PLoS ONE, 2015).
In all, about 310,000 compounds went through this assay and about 2,200 (0.71%) showed an effect of 50% or more. The effect is printed as a negative number. The list shows a part of the results.

What follows are compounds tested against human ether-à-go-go-related gene (hERG) potassium channel (human, UniProt Q12809) (assay: primary screen, population patch clamp on CHO cells stably expressing hERG).
Chain of human ether-à-go-go-related gene (hERG) potassium channel (Q12809 whole entry, looked up): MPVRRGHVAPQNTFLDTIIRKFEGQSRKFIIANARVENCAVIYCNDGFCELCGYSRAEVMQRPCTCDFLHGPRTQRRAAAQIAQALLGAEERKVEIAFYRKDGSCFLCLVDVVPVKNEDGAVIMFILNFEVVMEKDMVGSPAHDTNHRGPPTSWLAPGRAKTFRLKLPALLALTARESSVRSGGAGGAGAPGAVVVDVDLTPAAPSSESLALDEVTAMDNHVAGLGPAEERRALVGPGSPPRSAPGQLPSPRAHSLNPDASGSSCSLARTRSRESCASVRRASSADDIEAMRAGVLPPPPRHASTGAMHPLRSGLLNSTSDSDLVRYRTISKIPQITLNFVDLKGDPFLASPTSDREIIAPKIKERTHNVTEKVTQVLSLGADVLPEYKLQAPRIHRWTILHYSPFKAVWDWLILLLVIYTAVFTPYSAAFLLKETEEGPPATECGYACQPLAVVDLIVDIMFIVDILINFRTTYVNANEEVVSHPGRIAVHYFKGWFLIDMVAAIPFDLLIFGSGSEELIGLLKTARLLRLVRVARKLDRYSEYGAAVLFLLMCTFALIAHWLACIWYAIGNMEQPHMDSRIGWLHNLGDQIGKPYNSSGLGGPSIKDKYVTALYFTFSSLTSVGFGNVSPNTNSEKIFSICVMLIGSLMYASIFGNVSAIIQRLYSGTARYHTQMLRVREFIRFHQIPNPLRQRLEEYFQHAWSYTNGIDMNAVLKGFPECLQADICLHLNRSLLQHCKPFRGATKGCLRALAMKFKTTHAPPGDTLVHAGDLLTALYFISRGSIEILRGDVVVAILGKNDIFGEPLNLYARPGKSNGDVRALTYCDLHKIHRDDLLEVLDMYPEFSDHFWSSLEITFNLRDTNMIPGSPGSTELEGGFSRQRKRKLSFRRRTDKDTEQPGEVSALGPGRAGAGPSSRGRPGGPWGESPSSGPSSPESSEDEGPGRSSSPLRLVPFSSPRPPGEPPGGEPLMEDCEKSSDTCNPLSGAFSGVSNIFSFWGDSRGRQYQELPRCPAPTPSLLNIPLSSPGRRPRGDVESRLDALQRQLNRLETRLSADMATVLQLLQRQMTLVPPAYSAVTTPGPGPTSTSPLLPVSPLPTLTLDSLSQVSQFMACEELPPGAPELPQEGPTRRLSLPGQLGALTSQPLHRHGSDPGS

Row | Compound | hERG current change (%, negative = inhibition) at 1uM [%]
1 | C=CCSc1nnc(NC(=O)c2ccc(Cl)nc2)s1 | 12.9
2 | CCN(CC)C(=O)Cn1cc(S(=O)(=O)CC(=O)Nc2ccccc2C)c2ccccc21 | 5.2
3 | COc1ccc(C(=O)N(Cc2nc(-c3ccc(C)cc3)no2)C(C)C)cc1OC | 4.05
4 | COc1ccc(NC2=C(Cl)C(=O)N(CCc3ccccc3)C2=O)cc1 | 0.884
5 | COc1ccc(CSc2ncn[nH]2)cc1[N+](=O)[O-] | 11.5
6 | CCCOc1cc(C)c(S(=O)(=O)N2CCN(C)CC2)cc1C | -2.54
7 | C(=C\CSc1nnnn1-c1ccccc1)/CSc1nnnn1-c1ccccc1 | 0.568
8 | CC(C)CCn1c(Sc2nc3ccccc3o2)nc2c1c(=O)[nH]c(=O)n2C | 4.1
9 | COC(=O)c1cc(OC)c(OC)cc1N | -0.911
10 | O=C(N/C(=C\c1ccco1)C(=O)N1CCOCC1)c1ccco1 | 15.9
11 | CCCOc1ccc(C(=O)OCCN(CC)CC)cc1N.Cl | -20.4
12 | COc1ccc(-c2cc3nnc(-c4ccccc4)nc3s2)cc1 | 15
13 | Cn1nccc1NS(=O)(=O)c1ccc(C(C)(C)C)cc1 | 17.5
14 | CC1CCN(C(=O)COC(=O)CCCN2C(=O)c3cccc4cccc(c34)C2=O)CC1 | 9.36
15 | COc1ccc(/C=C/C(=O)Nn2cnnc2)cc1 | 5.38
16 | NC(=O)c1c(NC(=O)c2ccccc2)sc2c1CCCC2 | 13.5
17 | O=C(c1cccc(F)c1)N1CCN=C1SCc1cccnc1 | 4.98
18 | Cc1ccc(S(=O)(=O)N2CCC(C(=O)OCc3ccc([N+](=O)[O-])cc3)CC2)cc1 | -1.48
19 | Cc1ccc(C)c(N(C(=O)CNC(=O)c2ccco2)C(C(=O)NCC2CCCO2)c2ccccc2)c1 (stereo not shown) | 8
20 | NC(=O)c1ccc(NC(=O)CCN=C2NS(=O)(=O)c3ccccc32)cc1 | 22

Row | Compound | hERG current change (%, negative = inhibition) at 1uM [%]
21 | CCOc1ccccc1NC(=O)CSc1nnnn1-c1ccccc1 | -0.231
22 | O=[N+]([O-])c1cc(C(F)(F)F)ccc1NCCNC(=S)Nc1ccc(Cl)cc1 | 9.59
23 | Cc1ccc(CN2CCN(Cc3cccc4c3OCO4)CC2CCO)cc1 (stereo not shown) | -16.1
24 | Cn1c(=O)oc2cc(S(=O)(=O)N3CCC(C(=O)NCCc4ccccc4)CC3)ccc21 | 5.13
25 | CCN1CCN(CC(=O)Nc2ccc(S(=O)(=O)N3C(C)CCCC3C)cc2)CC1 (stereo not shown) | 2.03
26 | C/C(CCc1ccccc1)=N/NC(=O)C(=O)NCc1ccccc1 | -0.221
27 | N#CCC(=O)N/N=C/c1cn(Cc2ccccc2C#N)c2ccccc12 | 17.1
28 | O=C(NNC(=O)C1CCN(c2ncccn2)CC1)c1ccccc1 | 2.04
29 | Cn1cccc1C(=O)NC(=O)COC(=O)CCNS(=O)(=O)c1cccc(C(F)(F)F)c1 | 8.49
30 | Cc1cc2c(cc1S(=O)(=O)CCC(=O)Nc1cccc(C(F)(F)F)c1)OCC(=O)N2 | -16.2
31 | Cc1ccc(NC(=S)N(CCCN2CCN(C)CC2)Cc2cccs2)cc1C | -6.58
32 | CCCC(=O)OCC(=O)Nc1ccc(OC(F)F)cc1 | 6.14
33 | CCOC(=O)C1=C(C)NC2=C(C(=O)CC(c3cccs3)C2)C1c1cccs1 (stereo not shown) | 4.64
34 | NNc1nnc2c3cc(F)ccc3n(CCc3ccccc3)c2n1 | 11.3
35 | COc1cccc(CCNC(=O)CCc2nnc(-c3cc(C)oc3C)o2)c1 | 4.89
36 | COc1ccc(NC(=O)CSc2nccn2C)c([N+](=O)[O-])c1 | 3.85
37 | Cc1cccc(NC(=O)CN2C(=O)S/C(=C\c3cccn3-c3cccc(C(=O)O)c3)C2=O)c1 | 5.99
38 | Cc1cc(C)n(-c2nc(Nc3ccccc3C)nc(-n3nc(C)cc3C)n2)n1 | 13.3
39 | CCCNC(=O)c1ccc2c(c1)C1C3CCC(C3)C1C(c1ccccc1)N2 (stereo not shown) | 9.15
40 | Cl.O=C(NCCCn1ccnc1)c1ccccc1F | 15.3

Row | Compound | hERG current change (%, negative = inhibition) at 1uM [%]
41 | CC(C)CN1C(=O)c2ccc(C(=O)Nc3ccccc3C(=O)O)cc2C1=O | 11.8
42 | CCCCCC(=O)C(=O)c1ccc(O)cc1O | 16.8
43 | OCCN1CCN(C(=S)c2ccc(-c3ccccc3)cc2)CC1 | 3.7
44 | COc1ccc(/C=N/n2c(C)cc(C)cc2=O)cc1 | 12.7
45 | CCn1c(=O)c(C(=O)NCc2ccccc2)c(O)c2ccccc21 | 14.1
46 | CCN1CN(Cc2ccco2)CNC1=S | 3.57
47 | Nc1c(C(=O)CSc2nnc(COc3ccc(Cl)cc3)o2)c(=O)[nH]c(=O)n1C1CC1 | 9.59
48 | CCN(CC)S(=O)(=O)c1cccc(NC(=O)COC(=O)/C=C/c2cccs2)c1 | 6.14
49 | CC(=O)N1CCN(C(=O)COc2ccc3oc4c(c3c2)CCCC4)CC1 | -10.6
50 | CCn1c(=O)c(C(=O)NCc2cccnc2)c(O)c2ccccc21 | 3.25
51 | CCn1c(SCC(=O)N2CCN(S(=O)(=O)c3ccccc3)CC2)nnc1-c1cccs1 | 3.85
52 | COCCN(CCOC)C(=O)N1CCOCC1 | 19
53 | COc1cc(OC)cc(C(=O)NCc2ccc3[nH]c(C)cc3c2)c1 | 11.1
54 | CC(=O)c1c(C)[nH]c(C(=O)NCCc2ccc(Cl)cc2)c1C | 9.56
55 | S=C(NCCc1ccc(Cl)cc1)NCc1ccco1 | 16.7
56 | COCc1cc(C)nc2sc(C(=O)Nc3ccccc3Br)c(N)c12 | 9.29
57 | N#CC1=C(N)SC(N)=C(C#N)C1c1c(Cl)cccc1Cl | 5.21
58 | O=C(CN1C(=O)c2cccc([N+](=O)[O-])c2C1=O)N1CCN(S(=O)(=O)c2ccccc2)CC1 | 6.35
